Measurements from patent US20230416326A1 (LETO LABORATORIES, published 2023).
Blank lines part the entries; values can stand above or below the binder they belong to.

How the values were obtained:
[1] = target: T1, IL-2/15R β and γ on Mo7e cells (UniProt P14784 27-551; P31785 23-369, limits assumed); assay: cell-based or functional assay
T1 sequence (looked up) 1: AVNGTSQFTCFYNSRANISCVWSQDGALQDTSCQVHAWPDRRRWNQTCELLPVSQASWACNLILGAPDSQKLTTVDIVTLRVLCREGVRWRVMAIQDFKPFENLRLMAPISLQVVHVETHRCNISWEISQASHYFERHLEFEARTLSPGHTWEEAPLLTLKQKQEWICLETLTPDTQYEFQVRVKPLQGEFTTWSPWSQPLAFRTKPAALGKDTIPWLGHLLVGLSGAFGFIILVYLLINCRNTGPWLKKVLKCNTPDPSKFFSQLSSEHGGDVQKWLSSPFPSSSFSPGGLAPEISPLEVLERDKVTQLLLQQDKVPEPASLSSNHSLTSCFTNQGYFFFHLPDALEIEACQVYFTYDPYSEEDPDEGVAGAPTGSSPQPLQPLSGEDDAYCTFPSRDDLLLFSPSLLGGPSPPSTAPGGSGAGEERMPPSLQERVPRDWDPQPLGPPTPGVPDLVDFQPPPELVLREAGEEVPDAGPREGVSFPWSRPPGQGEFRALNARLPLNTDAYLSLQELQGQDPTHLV
T1 sequence (looked up) 2: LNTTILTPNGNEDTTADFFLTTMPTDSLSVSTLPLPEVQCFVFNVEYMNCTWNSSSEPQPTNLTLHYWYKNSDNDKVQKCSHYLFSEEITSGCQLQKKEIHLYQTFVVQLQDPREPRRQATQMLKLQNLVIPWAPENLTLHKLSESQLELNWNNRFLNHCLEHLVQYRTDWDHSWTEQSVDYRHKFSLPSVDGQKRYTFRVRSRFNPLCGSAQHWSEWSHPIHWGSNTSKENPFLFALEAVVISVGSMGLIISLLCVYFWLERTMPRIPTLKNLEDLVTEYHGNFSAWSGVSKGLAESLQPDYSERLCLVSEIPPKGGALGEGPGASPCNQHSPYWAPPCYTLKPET

IL-15Rα-his = target: T2, IL-15Rα-his (Homo sapiens (Human), UniProt Q13261 31-205, limits assumed); assay: BLI (Octet RED96), receptor immobilised on sensor
T2 construct: also called interleukin-15 receptor alpha; not shown: his tag
Description: (§1) BLI was used to determine the affinity of a target protein for a receptor by a method with reference to (Estep, P et al., High throughput solution Based measurement of antibody-antigen affinity and epitope binning. MAbs, 2013.5 (2): p. 270-8). The receptor proteins IL-15Rα-his, IL2Rα-his, and IL2/15Rβ-Fc/Fc used in the experiment were each produced by the company of the present application, and both an IL-2 derivative without IL2Rα binding and an IL-2 complex without IL2Rα binding were prepared according to the description in Patent Publication CN111018961A. An IL-15(N72D)/Sushi-hIgG1Fc complex was prepared according to the literature (K.-p. Han et al./Cytokine 56 (2011) 804-810). A buffer was prepared according to the following formula: 10 mM HEPES, 150 mM NaCl, 3 mM EDTA, 0.1% BSA, and 0.05% tween20. Receptor proteins were each pre-immobilized in advance on a corresponding sensor. Then the steps of baseline, loading, baseline, association, and dissociation were conducted according to the established method (see Estep, P et al., High throughput solution Based measurement of antibody-antigen affinity and epitope binning. MAbs, 2013. 5 (2): p. 270-8). Data acquisition and analysis were conducted using the Fortebio Octet RED96 software Data acquisition 11.0 and Data analysis 11.0, respectively. Results are shown in Table 1 (the smaller the value, the stronger the affinity).

IL2Rα-his = target: T3, IL2Rα-his (UniProt P01589 22-240, limits assumed); assay: BLI (Octet RED96), receptor immobilised on sensor
T3 construct: Made in-house; also called interleukin-2 receptor alpha; CD25; not shown: his tag
T3 sequence (looked up): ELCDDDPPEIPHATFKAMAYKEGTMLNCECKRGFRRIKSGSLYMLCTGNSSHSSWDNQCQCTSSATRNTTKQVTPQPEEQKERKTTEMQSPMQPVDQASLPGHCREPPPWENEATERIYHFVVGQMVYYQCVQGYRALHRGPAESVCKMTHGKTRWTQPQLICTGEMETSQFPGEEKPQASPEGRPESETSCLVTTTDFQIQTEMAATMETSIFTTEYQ
Description: as §1

IL2/15Rβ-Fc/Fc = target: T4, IL2/15Rβ-Fc/Fc (UniProt P14784 27-240); assay: BLI (Octet RED96), receptor immobilised on sensor
T4 construct: Made in-house; The label 'Fc/Fc' is not explained; it is read here as one receptor-Fc chain paired with an Fc-only chain; also called IL2Rβ; CD122; not shown: Fc; second Fc chain implied by the label 'Fc/Fc'
Description: as §1

- EC50 (nM), promotion of Mo7e cell proliferation [1]: 0.329 nM
- binding result (IL-15Rα-his): no binding (tested: 100 nM)
- binding result (IL2Rα-his): no binding (tested: 100 nM)
- Kd (IL2/15Rβ-Fc/Fc): 0.654 nM
B1: Complex 2 (heterodimer complex of IL-2/15 chimera 1 and Sushi-hIgG4Fc) (Fc fusion)
chain 1: APTSSSTKKTQLQLEHLLLDLQMILNGIQSMHIDATLYTESDVHPSCKVTAMKCFLLELQVISLESGDASIHDTVENLIILANNSLSSNGNVTESGCKECEELEEKNIVEFLNRFITFAQSIISTLT
chain 2: ITCPPPMSVEHADIWVKSYSLYSRERYICNSGFKRKAGTSSLTECVLNKATNVAHWTTPSLKCIR[no letters for human IgG4 Fc with S228P (EU numbers)]
notes: also called IL-2/15 chimera 1-Sushi-Fc

- binding result (IL-15Rα-his): no binding (tested: 100 nM)
- binding result (IL2Rα-his): no binding (tested: 100 nM)
- Kd (IL2/15Rβ-Fc/Fc): 0.337 nM
B2: Complex 1 (heterodimer complex of IL-2/15 chimera 1 and Sushi-hIgG1Fc) (Fc fusion)
chain 1: B1 chain 1
chain 2: ITCPPPMSVEHADIWVKSYSLYSRERYICNSGFKRKAGTSSLTECVLNKATNVAHWTTPSLKCIR[no letters for human IgG1 Fc]
notes: as for B1

- EC50 (nM), promotion of Mo7e cell proliferation [1]: 0.09 nM
- binding result (IL-15Rα-his): no binding (tested: 100 nM)
- binding result (IL2Rα-his): no binding (tested: 100 nM)
- Kd (IL2/15Rβ-Fc/Fc): 0.0556 nM
B3: IL-15(N72D)/Sushi-hIgG1Fc complex (Fc fusion)
chain 1: [no letters for about 120 residues]
chain 2: B2 chain 2
notes: Prepared according to the literature (Han et al., Cytokine 56 (2011) 804-810); The literature construct may differ
